PMC4336329 (PLoS ONE, 2015)
In all, about 310,000 compounds went through this assay and about 2,200 (0.71%) showed an effect of 50% or more. Effects have a minus sign here. This is one part of the list.

Target: human ether-à-go-go-related gene (hERG) potassium channel (human, UniProt Q12809)
Experiment: primary screen, population patch clamp on CHO cells stably expressing hERG

Sequence of human ether-à-go-go-related gene (hERG) potassium channel (Q12809 whole entry, looked up): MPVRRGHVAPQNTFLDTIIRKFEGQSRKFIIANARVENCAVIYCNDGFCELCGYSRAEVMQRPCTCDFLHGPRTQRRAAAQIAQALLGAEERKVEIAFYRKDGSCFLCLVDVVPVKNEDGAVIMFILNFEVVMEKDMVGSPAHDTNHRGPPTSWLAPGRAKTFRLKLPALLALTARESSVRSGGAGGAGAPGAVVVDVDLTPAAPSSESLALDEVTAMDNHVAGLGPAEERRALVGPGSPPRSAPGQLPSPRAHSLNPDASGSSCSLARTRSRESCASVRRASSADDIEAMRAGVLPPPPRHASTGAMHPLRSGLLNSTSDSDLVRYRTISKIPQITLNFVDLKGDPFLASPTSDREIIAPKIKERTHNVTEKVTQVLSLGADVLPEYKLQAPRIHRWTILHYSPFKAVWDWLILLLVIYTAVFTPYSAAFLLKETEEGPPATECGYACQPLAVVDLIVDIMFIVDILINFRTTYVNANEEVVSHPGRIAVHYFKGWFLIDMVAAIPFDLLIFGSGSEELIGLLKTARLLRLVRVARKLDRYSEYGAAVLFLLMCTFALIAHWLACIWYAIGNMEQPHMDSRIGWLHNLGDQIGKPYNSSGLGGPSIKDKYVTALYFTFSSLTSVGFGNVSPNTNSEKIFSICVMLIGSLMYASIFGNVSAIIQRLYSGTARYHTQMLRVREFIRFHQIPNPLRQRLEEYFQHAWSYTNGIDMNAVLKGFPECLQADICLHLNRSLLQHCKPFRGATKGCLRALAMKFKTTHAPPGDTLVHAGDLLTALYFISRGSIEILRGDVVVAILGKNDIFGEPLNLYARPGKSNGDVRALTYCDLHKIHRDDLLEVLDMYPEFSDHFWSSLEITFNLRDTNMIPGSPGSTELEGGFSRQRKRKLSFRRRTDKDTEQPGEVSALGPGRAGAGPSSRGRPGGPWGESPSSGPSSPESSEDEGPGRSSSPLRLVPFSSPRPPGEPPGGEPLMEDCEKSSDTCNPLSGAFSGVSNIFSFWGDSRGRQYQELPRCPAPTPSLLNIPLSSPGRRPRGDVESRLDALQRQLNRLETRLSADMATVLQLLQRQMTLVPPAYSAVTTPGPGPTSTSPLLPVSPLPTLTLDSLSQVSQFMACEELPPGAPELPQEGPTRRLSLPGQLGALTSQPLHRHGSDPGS

| SMILES | hERG current change (%, negative = inhibition) at 1uM [%] |
| --- | --- |
| Cc1cc(C)c2c(c1)-c1cc(C)nn1C(c1cccnc1)N2 (stereo not shown) | -5.29 |
| Cc1c(Cl)cccc1NC(=S)N1CCN(S(=O)(=O)c2cccs2)CC1 | 7.01 |
| CC1CCCC(NC(=O)c2ccc(F)c(S(=O)(=O)N3CCOCC3)c2)C1C (stereo not shown) | 9.38 |
| CCc1ccc(C(C(=O)NC2CCCC2)N(C(=O)/C=C/C(=O)Nc2cc(C)on2)c2ccccc2C)cc1 (stereo not shown) | 7.84 |
| Cn1c(=O)c2ccccc2n(Cc2ccccc2Cl)c1=O | 4.87 |
| O=C(COc1ccccc1Cl)Nc1ccc(Cl)cn1 | 17.3 |
| O=C(NCc1ccco1)c1cccc(NS(=O)(=O)c2ccccc2F)c1 | 6.58 |
| C=C1c2ccccc2S(=O)(=O)N(Cc2ccccc2)C1COCc1ccccc1 (stereo not shown) | 3.22 |
| N#Cc1ccccc1OCC(=O)NNC(=O)CNC(=O)c1cccc(Br)c1 | 1.85 |
| CCn1cc(C(=O)NCC2CCCO2)c(=O)c2cc(S(=O)(=O)N3CCCCC3)ccc21 (stereo not shown) | -8.38 |
| c1ccc(Nc2n[nH]nc2-c2ccccc2)cc1 | -9.17 |
| CC(Oc1ccc(Cl)cc1)c1ccnc(N)n1 (stereo not shown) | 15.5 |
| COc1cc2c(cc1OC)CN(C(=O)Cc1c(F)cccc1Cl)CC2 | 11.9 |
| COc1ccccc1-c1nc2n(n1)C(c1cccs1)C(C(=O)Nc1cccnc1)=C(C)N2 (stereo not shown) | 0.0177 |
| CC1(NC(=O)CCNC(=O)c2ccc(C(C)(C)C)cc2)CCS(=O)(=O)C1 (stereo not shown) | 10.9 |
| O=[N+]([O-])c1cc(F)c(N2CCCCC2)cc1N1CCOCC1 | -12.4 |
| O=C(CN1CCCCCCC1)N/N=C/c1ccc(F)c(F)c1 | -7.58 |
| Cc1cccc(N(C(=O)CNC(=O)c2cccs2)C(C(=O)NC2CCCC2)c2cccnc2)c1 (stereo not shown) | 12.9 |
| O=C(Nc1ccc(N2CCCCC2)cc1)c1ccc(F)cc1F | 13.3 |
| O=C(CN1CCN(S(=O)(=O)c2cccc(Cl)c2)CC1)N1CCCCC1 | 13.2 |

| SMILES | hERG current change (%, negative = inhibition) at 1uM [%] |
| --- | --- |
| COc1ccccc1C(=O)N/C(=C/c1ccc(Br)cc1)C(=O)N1CCCC1 | 9.34 |
| COc1nc(N)nc(CC(=O)C2CC2)n1 | 7.85 |
| CCCC(C)c1nnc(NC(=O)COc2ccc3c(c2)OCO3)s1 (stereo not shown) | 12.4 |
| O=C(O)c1ccc(/C=N/n2c(C3CCCCC3)n[nH]c2=S)cc1 | 14.1 |
| Cc1cc(C)n(C(=O)CNc2ccccc2Cl)n1 | 15.7 |
| Cc1cc(NC(=O)/C=C/c2ccco2)ccc1NC(=O)c1ccccc1 | 10.7 |
| Cc1nn(C)c(Oc2cccc(C(F)(F)F)c2)c1C#N | 4.96 |
| Cn1nnnc1SCc1cc(=O)n2ccsc2n1 | 8.39 |
| CCc1ccc(NC(=O)C(=O)N/N=C(\C)CC(=O)NCCOC)cc1 | 6.64 |
| CCOP(=O)(OCC)c1nc(-c2cccc3ccccc23)oc1NCc1ccccc1 | 9.28 |
| CCNC(=O)COC(=O)c1cc(C)nc2ccccc12 | 5.55 |
| Cn1c(=O)cc(Nc2ccccc2)c2c(=O)n(-c3ccccc3)c(=O)n(-c3ccccc3)c21 | 9.57 |
| CC(=O)c1cc(C#N)c(Oc2ccc(F)cc2)nc1C | 13 |
| COc1cccc(NC(=O)COC(=O)Cc2ccc(Cl)cc2)c1 | 14.5 |
| Cc1nn(C)cc1/C=N\NC(=O)c1csc2c1CCCC2 | 1.17 |
| COC(=O)c1c(NC(=O)C2=COCCO2)sc(C)c1C | 8.77 |
| O=C(CN1CCN(C(=O)c2ccccc2)CC1)Nc1ncc(Br)cc1Br | -84.9 |
| CC1(C)CC(=O)C(N=Nc2c(Cl)cc(Cl)cc2Cl)=C(O)C1 | 16.3 |
| O=c1c(-c2nnc(SCc3ccc(Cl)cc3Cl)o2)cccn1Cc1ccccc1 | 1.05 |
| O=C(CC(=O)NN=C1CCCC1)NCCc1ccccc1 | 1.75 |

| SMILES | hERG current change (%, negative = inhibition) at 1uM [%] |
| --- | --- |
| Cc1cc(N)n2nc(C)c(-c3ccc(Cl)cc3)c2n1 | 8.12 |
| COc1cc(CNCCc2ccccc2)ccc1OCC(N)=O.Cl | 1.92 |
| O=C(Nc1ccc(-c2nc3cccnc3s2)cc1)C1CCCO1 (stereo not shown) | 8.87 |
| O=C1c2ccccc2C(=O)N1CCc1nc2ccccc2c(=O)n1-c1ccccn1 | 14.1 |
| Cc1cc(Cl)ccc1Oc1nc(-c2ccccc2)ncc1S(C)(=O)=O | 8.04 |
| CNC(=O)C1CCN(S(=O)(=O)c2c(C)noc2/C=C/N(C)C)CC1 | -0.512 |
| C=CCn1c(O)c(C(C)=Nc2ccc(C(=O)OCC)cc2)c(=O)[nH]c1=O | -1.64 |
| COc1cc(C(=O)Sc2ccc(C)cc2)cc(OC)c1OC | 4.96 |
| O=C(c1cnsn1)N1CCC(CO)(Cc2cccc(F)c2)CC1 | 16.1 |
| CCCCNS(=O)(=O)c1ccc2nc(-c3cccnc3)cc(C(=O)NC3CCCC3)c2c1 | 7.8 |
| CC(C)CN1C(=O)c2ccc(C(=O)NCc3ccccn3)cc2C1=O | 6.44 |
| O=C(c1ccc(Br)o1)N1CCN(c2ccccn2)CC1 | 0.932 |
| Cc1ccc(OCc2ccc(C(=O)N3CCOCC3)cc2)cc1C | 9.53 |
| O=C(CCC(=O)Nc1ccccc1)NNC(=O)c1cccs1 | 13.5 |
| O=C(O)C1C2c3ccccc3C(c3ccccc32)C1C(=O)Nc1ccccc1 (stereo not shown) | 11.8 |
| Cc1nn(C)c(C)c1NC(=O)CSc1nc(C2CC2)nc2c1cnn2-c1ccccc1 | 4.22 |
| O=C(Cn1ccnc1)c1ccc(O)c(O)c1 | 14.5 |
| CSc1ccccc1NC(=O)c1ccccc1C | 9.76 |
